The list shows a part of the results. The full chains were built here from the parent and the listed change. Values near 0.05 are background.
B1: TEV protease; numbered along this chain (parent)
chain: MGESLFKGPRDYNPISSSICHLTNESDGHTTSLYGIGFGPFIITNKHLFRRNNGTLVVQSLHGVFKVKDTTTLQQHLVDGRDMIIIRMPKDFPPFPQKLKFREPQREERICLVTTNFQTKSMSSMVSDTSCTFPSGDGIFWKHWIQTKDGQCGSPLVSTRDGFIVGIHSASNFTNTNNYFTSVPKNFMELLTNQEAQQWVSGWRLNADSVLWGGHKVFMVKPEEPFQPVKEATQL

Variants of: B1
Assay: raw area under fraction-flipped curve 0-4 h after induction (AUC4h, not background-subtracted), DNA-recorder readout of cleavage of the substrate (dimensionless); higher = more cleavage of the substrate by the protease variant
Conditions: temperature: 34 °C; time window: 0-4 h after rhamnose induction
Protocol: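 In vivo DNA recorder in E. coli TOP10(DE3) ΔrhaA at 34 °C. Each TEVp single-site mutant (parent TEVp 0) is paired with a single-site variant of the 7-mer TEVs (canonical ENLYFQ|S). The substrate sits between flexible linkers in a Bxb1-sfGFP-TEVs-SsrA fusion, so cleavage stabilises Bxb1 and speeds flipping of a recombination array, read by NGS. The value is the raw area under the fraction-flipped curve over 0-4 h after rhamnose induction (AUC4h), with ≥20 reads per time point. It is not background-subtracted; inactive controls average about 0.047.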
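Also: Bxb1 expression induced with 0.2% (w/v) L-rhamnose at OD600 near 0.5, cultures sampled hourly, flipped fraction per protease–substrate barcode pair counted by paired-end Illumina sequencing.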

Variant | area with substrate ENLYCQS | area with substrate ENLYDQS | area with substrate ENLYGQS | area with substrate ENLYHQS | area with substrate ENLYIQS | area with substrate ENLYKQS | area with substrate ENLYLQS | area with substrate ENLYNQS | area with substrate ENLYPQS | area with substrate ENLYQQS | area with substrate ENLYRQS | area with substrate ENLYSQS | area with substrate ENLYVQS | area with substrate ENLYWQS | area with substrate ENLYYQS | area with substrate ENLYEQS | area with substrate ENLYMQS | area with substrate ENLYTQS
G136Q | 0.1 | 0.0606 | 0.0512 | 0.0745 | 0.135 | 0.0616 | 0.0812 | 0.0628 | 0.0749 | 0.0701 | 0.0629 | 0.0821 | 0.167 | 0.0836 | 0.0414 |  |  | 
G136H | 0.0979 | 0.0649 | 0.0729 | 0.0622 |  | 0.0504 | 0.0855 | 0.0612 | 0.0734 | 0.0805 | 0.0431 | 0.0869 | 0.117 | 0.0782 | 0.0661 | 0.0613 | 0.0818 | 0.0767
G136L | 0.0801 | 0.0544 | 0.0694 | 0.0697 | 0.105 | 0.0635 | 0.125 | 0.0729 | 0.061 |  | 0.0635 | 0.117 | 0.0685 | 0.0698 |  | 0.0623 | 0.087 | 0.0687
P104M | 0.0486 | 0.0613 | 0.0477 | 0.0564 | 0.0721 | 0.0649 | 0.0565 | 0.0569 | 0.0651 | 0.043 | 0.0645 | 0.0529 | 0.0538 | 0.0694 | 0.0517 | 0.0613 |  | 
P104L | 0.0303 | 0.0608 | 0.0425 | 0.0625 | 0.0579 | 0.0484 |  | 0.0574 |  | 0.0527 | 0.0443 |  | 0.0608 | 0.0581 | 0.0426 | 0.0554 | 0.0483 | 
P104I | 0.0616 | 0.0571 | 0.0533 | 0.0607 | 0.0752 | 0.0584 |  | 0.056 | 0.0521 | 0.0547 | 0.0586 | 0.0661 | 0.0677 | 0.058 | 0.0543 | 0.0609 | 0.061 | 0.0686
K221R | 0.0607 | 0.0614 | 0.0681 | 0.0673 | 0.155 | 0.0613 |  | 0.0575 | 0.0771 | 0.075 | 0.0687 | 0.0863 |  | 0.0901 | 0.044 | 0.0629 | 0.0925 | 0.0887
K120H | 0.0946 | 0.081 | 0.073 | 0.074 | 0.126 | 0.058 |  | 0.0721 |  |  | 0.0547 | 0.131 | 0.132 | 0.0792 |  | 0.0609 |  | 
K120Y | 0.0769 | 0.0617 | 0.0614 | 0.0633 | 0.0913 | 0.0681 |  | 0.0646 | 0.0837 | 0.0686 | 0.0722 | 0.0633 |  | 0.0755 | 0.0754 | 0.0617 | 0.112 | 
K120W | 0.0769 | 0.0616 | 0.0635 | 0.0624 | 0.163 |  |  | 0.0799 | 0.0741 | 0.0668 | 0.0719 |  |  |  |  |  | 0.0715 | 
F117N | 0.088 | 0.0502 | 0.068 | 0.0587 | 0.119 |  |  | 0.0745 | 0.0803 |  | 0.0632 | 0.0827 | 0.112 | 0.0734 | 0.066 | 0.0572 |  | 
T72R | 0.0572 | 0.063 | 0.0617 | 0.0632 |  | 0.0487 |  |  | 0.0665 | 0.0657 | 0.0658 |  | 0.137 |  | 0.0537 | 0.0685 | 0.0827 | 
A232S | 0.117 |  | 0.0371 | 0.0612 | 0.145 | 0.0559 | 0.0679 |  | 0.0687 |  | 0.071 | 0.0685 | 0.175 | 0.097 | 0.0712 | 0.0517 | 0.0895 | 
D208Q | 0.0514 | 0.0664 | 0.059 | 0.0598 | 0.0934 | 0.0571 |  |  | 0.0602 |  |  |  |  | 0.0325 |  | 0.0648 |  | 0.0818
D208E | 0.139 | 0.0626 |  | 0.0682 |  | 0.0473 |  | 0.106 | 0.0591 | 0.062 | 0.061 |  |  | 0.0826 |  | 0.0659 | 0.0831 | 
P184N | 0.0579 | 0.0611 |  | 0.0629 |  | 0.0653 |  | 0.0519 |  |  | 0.0593 |  | 0.0839 | 0.0294 |  | 0.0649 | 0.0768 | 0.084
P184S | 0.0724 |  | 0.054 | 0.0632 | 0.101 | 0.0643 |  | 0.0647 | 0.0777 | 0.0641 | 0.0626 | 0.0644 | 0.0886 | 0.0745 | 0.0559 | 0.0709 | 0.0905 | 0.0658
P96M | 0.097 | 0.0809 | 0.0691 | 0.0834 | 0.106 | 0.0725 | 0.0707 | 0.0648 | 0.047 |  | 0.062 | 0.0794 |  | 0.085 |  | 0.0644 | 0.0789 | 
V64T | 0.0738 |  | 0.0605 | 0.0655 |  | 0.0559 |  |  |  |  | 0.0808 | 0.0658 |  | 0.0905 | 0.0704 | 0.0692 |  | 
V64Q | 0.0561 | 0.0705 | 0.0567 | 0.0741 | 0.109 |  |  | 0.0747 | 0.0508 | 0.0644 | 0.0498 | 0.0707 |  | 0.0695 |  | 0.0717 | 0.0915 | 0.0817
D128M | 0.151 | 0.0666 | 0.0742 | 0.0547 | 0.163 | 0.0693 | 0.108 | 0.0798 | 0.086 | 0.0669 | 0.0651 | 0.11 | 0.178 | 0.101 | 0.0632 | 0.0965 |  | 0.0992
D128F | 0.127 |  | 0.068 | 0.0749 | 0.136 | 0.0659 | 0.103 |  | 0.118 |  |  |  |  | 0.107 | 0.0438 | 0.0726 |  | 
D128E | 0.196 | 0.0722 | 0.0738 | 0.0618 |  |  |  | 0.0766 | 0.1 |  | 0.0566 |  | 0.132 | 0.0717 |  | 0.0737 |  | 0.0664
D128C | 0.0919 | 0.0739 | 0.0722 | 0.111 |  | 0.067 |  | 0.0751 | 0.0795 |  |  |  | 0.163 | 0.111 |  | 0.0708 | 0.103 | 0.109
L48S | 0.0611 |  | 0.0569 | 0.0518 | 0.0856 | 0.0353 | 0.0636 | 0.068 | 0.0675 | 0.0738 | 0.0597 | 0.0628 | 0.0692 | 0.0748 | 0.0617 | 0.0642 | 0.0577 | 0.0671
